In the supplement of paper PMC3334620:
Over roughly 33,000 sequences, “E-score (-0.5 to 0.5)” has its median near -0.04; the highest 2% begin near 0.36. The list shows a part of the results.

Molecular target: T1, Hmlalpha2 (UniProt P0CY09)
T1 sequence: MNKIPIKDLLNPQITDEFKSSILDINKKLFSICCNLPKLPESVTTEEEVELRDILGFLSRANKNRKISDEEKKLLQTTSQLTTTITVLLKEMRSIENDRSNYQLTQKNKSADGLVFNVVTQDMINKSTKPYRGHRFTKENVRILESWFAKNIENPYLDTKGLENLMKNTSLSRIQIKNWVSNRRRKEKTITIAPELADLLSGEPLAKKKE
Experiment: PBM E-score (8-mer binding enrichment) (E-score (-0.5 to 0.5)); higher = stronger / more preferred TF binding; most listed sequences are background and not binding sites
Conditions: protein concentration: 200 nM; construct: GST-full length
Protocol: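 Universal 'all 10-mer' protein binding microarrays (Agilent AMADID 015681) probed with GST-tagged S. cerevisiae TFs (full-length or DBD) made by in vitro transcription/translation (PURExpress), about 100-200 nM. Bound TF was detected with fluorescent anti-GST. Each ungapped 8-mer (which stands for itself and its reverse complement) is scored by the PBM enrichment score (E-score), a modified Wilcoxon-Mann-Whitney statistic from -0.5 to +0.5, computed with the Universal PBM Analysis Suite. Scale: above 0.35 generally sequence-specific binding.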

| Sequence | PBM E-score |
| --- | --- |
| TCCATCAA | 0.0233 |
| GTGGGCTA | -0.235 |
| CATGTCTA | 0.271 |
| AGAAGTCG | -0.131 |
| ACATGCAT | 0.337 |
| GTGGATGA | 0.0559 |
| CCCACCGG | -0.341 |
| AATAAATG | 0.115 |
| AAACAATG | 0.161 |
| ATCCGGAG | 0.0704 |
| CGCCTGTA | 0.0272 |
| AATCTTAA | 0.0438 |
| CGGCGAAA | -0.0257 |
| AGACTTAA | 0.0443 |
| CGGGCTGA | -0.252 |
| AGAAATAA | 0.166 |
| GCCATAGA | -0.329 |
| AATGGTGA | -0.00088 |
| TACGCTGA | 0.122 |
| AGCACGGC | 0.102 |
| ACAGGAGT | 0.134 |
| ATCCAATC | -0.0868 |
| GAGTCCCC | -0.362 |
| ACTTAGAA | 0.0319 |
| ACTTTTAC | 0.334 |

| Sequence | PBM E-score |
| --- | --- |
| CCCATAAA | -0.0807 |
| CAGCCTGA | -0.177 |
| GTCAGAGA | -0.108 |
| TTATGGAA | -0.196 |
| ATTGACGA | 0.116 |
| ATGCAAAC | -0.0222 |
| ATGACTCA | -0.0347 |
| AAGTGAGG | -0.187 |
| CTTCGAAA | 0.119 |
| CGGTAACC | 0.0427 |
| AGTGGCAC | -0.237 |
| ACCGCTCC | -0.193 |
| ACAGTCAT | 0.0263 |
| AACAGTCA | -0.0853 |
| ATGAAGAG | -0.0482 |
| GTTCAAAC | 0.092 |
| TGGTAGAA | 0.0266 |
| TAAAAGAA | 0.166 |
| CAGGCGGG | -0.323 |
| CATACTGC | -0.134 |
| CCCTACCG | -0.206 |
| CAAGAATA | -0.00782 |
| ATCTACGC | 0.368 |
| ATGGAAGG | -0.196 |
| CCTTGAGC | -0.151 |

| Sequence | PBM E-score |
| --- | --- |
| GATCCGTA | -0.322 |
| CTTCGATC | -0.122 |
| TGCACACA | 0.14 |
| CATGGCCG | 0.099 |
| CACAACGG | 0.107 |
| GGAGAGAA | -0.1 |
| AAACAGGC | -0.186 |
| AAGAACAA | 0.309 |
| ATGGTACC | 0.0108 |
| GAACCTGC | -0.102 |
| AAGCCGTC | -0.134 |
| ACTGTCAT | -0.0408 |
| AGATTTAC | 0.289 |
| CACGCCAG | -0.0109 |
| AGACTAAA | -0.0357 |
| CCGTGCCG | -0.175 |
| CTTTACCA | 0.0599 |
| CCACGAAG | -0.0774 |
| ATCCGAGC | -0.175 |
| CGTACAAA | 0.225 |
| AGAATGTG | -0.125 |
| CCTGCCCG | -0.141 |
| GTGAGATA | -0.116 |
| GGTGTTTA | 0.112 |
| GTTCGGGA | -0.0459 |

| Sequence | PBM E-score |
| --- | --- |
| CCGAGAGG | -0.259 |
| CAGCCTCG | 0.00779 |
| GAGCAAGA | -0.159 |
| ACTATCTA | 0.169 |
| ATTCCGTG | 0.119 |
| CAGAAGAG | -0.19 |
| CCGTCGCG | -0.066 |
| GAGAAGAC | -0.077 |
| AGGAAGAT | -0.192 |
| AAATTTGT | 0.148 |
| GCTGGCAA | -0.147 |
| TCAGGCGA | -0.202 |
| ATTAGTGC | 0.0211 |
| GAACAATA | 0.224 |
| AATAGGGA | -0.195 |
| CACAGCGG | 0.0576 |
| AAATCTAG | -0.0263 |
| CAACGATA | 0.126 |
| ATGCCAAC | 0.0893 |
| AGGAGTCG | -0.171 |
| GTGTTAGA | 0.305 |
| GCGACTGA | -0.167 |
| AGATCCGC | -0.21 |
| CAGCACAG | 0.0911 |
| ATTATAAC | 0.135 |

| Sequence | PBM E-score |
| --- | --- |
| CTGGGCCA | -0.374 |
| CTCACGCA | 0.0712 |
| CTGCGCAG | -0.105 |
| ATCTTCTC | -0.215 |
| CCTGGATC | -0.221 |
| CCATGCCC | -0.271 |
| ACCCGCAA | -0.192 |
| ACTTGTTA | 0.259 |
| CGAACCTA | -0.0795 |
| ATTTACTG | 0.051 |
| ATGGCTTG | 0.0344 |
| TAACGCTA | 0.133 |
| AATTGGGA | -0.072 |
| AACCTGTG | 0.145 |
| AACAATGT | 0.279 |
| CCGCGCAA | -0.0442 |
| CGATTCGA | 0.0306 |
| AATGCCCC | -0.262 |
| ACACTAGT | 0.0139 |
| AGGTTGTC | 0.0486 |
| GTTTGCAA | 0.281 |
| CGACGCTC | -0.155 |
| CTGCACAC | 0.0406 |
| ACTCAAGA | -0.0922 |
| AAGGCCTC | -0.205 |

| Sequence | PBM E-score |
| --- | --- |
| ACGCTGTC | 0.107 |
| ATATTTTC | 0.0479 |
| CCTAGTCG | -0.178 |
| CTACGAGC | -0.184 |
| CTGGGCCC | -0.329 |
| AGTAAATA | 0.22 |
| AACGACCG | -0.104 |
| AGATAGCG | 0.0912 |
| ATCTCTGC | -0.272 |
| GTGCAGTA | 0.0382 |
| GCCAACAC | 0.198 |
| GAGCTGGA | -0.284 |
| CAATCTTC | 0.0595 |
| ATTCCCCC | -0.294 |
| ATCTCGTG | -0.033 |
| TGGTTTAA | 0.224 |
| CACGCCCC | 0.0158 |
| ATACGCAG | 0.233 |
| ATCACTCC | -0.129 |
| CGACTGAC | -0.137 |
| GATAGCTA | -0.281 |
| GTACCAGA | 0.033 |
| CAAATATC | 0.169 |
| CCCGTACA | 0.0325 |
| ACGCTTCT | -0.0872 |

| Sequence | PBM E-score |
| --- | --- |
| GGTGCAGA | -0.202 |
| CACTTTGC | 0.133 |
| CGGGAGCA | -0.331 |
| ATGAACCC | -0.0656 |
| TATGTCCA | -0.0193 |
| GCAGCAAC | 0.0954 |
| ATATTGAG | -0.00475 |
| AAGCTAAC | 0.0831 |
| CTCCCTGA | -0.27 |
| CTACCTGA | -0.0237 |
| CACCAAAG | -0.0791 |
| ACGGAGAA | -0.0887 |
| AGACCCAT | -0.164 |
| AATTGCCT | -0.0627 |
| CCGTCTTC | -0.236 |
| CAATTTCC | -0.0918 |
| ATACATCC | 0.308 |
| GATGCAGC | -0.103 |
| CAACTAGG | 0.0499 |
| AGCGCTGG | -0.307 |
| AGGCCGAT | -0.0701 |
| AATCCATT | 0.101 |
